# Reference: the supplement of paper PMC5499739
# In all, about 16,000 sequences were measured (“Z-score”: median about -0.37, highest 2% from about 3.1 on). The list shows a part of the results.
# System: RBM10 RRM1-ZnF-RRM2 (GST-tagged construct)
# Experiment: RNAcompete 7-mer binding Z-score; higher = stronger binding preference
# Procedure, shortened: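 GST-tagged RBM10 constructs (20 pmol) were mixed with a designed pool of 241 399 RNAs up to 41 nt (1.5 nmol), transcribed from microarray-derived DNA templates. Mixing was in 1 ml Hepes pH 7.8 buffer with KCl, NaCl, glycerol, DTT, BSA and glutathione Sepharose beads. Binding ran 30 min at 4°C, followed by four 2-min washes at 4°C, and bound RNA was identified by microarray hybridisation. Each heptamer motif received a one-sided Z-score for enrichment across probes containing it.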
row,Sequence,RNAcompete 7-mer binding Z-score
1,UGCGGAG,1.43
2,GCGUUGA,-0.0925
3,UUGGAUC,-0.3
4,UACCCAA,-0.734
5,GAUCGGA,0.785
6,UCAUACG,-0.5
7,CUAACGC,-0.85
8,UGUCCAG,-0.643
9,CGUCACU,-0.515
10,AGACCAG,-0.464
11,AAGCACG,-0.111
12,GCAGCCA,-0.296
13,UGACGCA,-0.107
14,AACUUGC,-0.737
15,CCGCGGA,0.144
16,CCGAGAC,-0.519
17,UUGUAAU,-0.559
18,GGCAUGU,0.632
19,GUGAUGU,0.326
20,GUGCAUA,0.141
21,GUGCGGA,2.04
22,AAGCUGU,-0.639
23,UUCAGCA,-0.562

row,Sequence,RNAcompete 7-mer binding Z-score
1,UCCUUGG,-0.307
2,GGUGUGU,1.42
3,AUUCCCC,-0.613
4,CCUGAAU,-0.777
5,AAGCUGC,-0.508
6,GCGGAGC,1.35
7,AGUGCUG,0.0495
8,AAUGAUG,0.261
9,GCCAUAU,-0.566
10,ACUGAAA,-0.417
11,AAAUUUC,-0.61
12,GCCUGCU,-0.992
13,UUAGCAC,-0.406
14,CAGACUG,-0.0962
15,GAAGUCA,-0.0889
16,CAGCACG,-0.0343
17,CAAACGU,-0.34
18,GUAUUUC,-0.624
19,AUCUAAU,-0.712
20,GUGGUUA,2.17
21,UGGAGGU,3.02
22,GGCAUCC,-0.136
23,UACGACG,0.0969

row,Sequence,RNAcompete 7-mer binding Z-score
1,AGGACGG,2
2,GCCGACG,-0.0343
3,UCGAUGG,0.971
4,ACAAACC,-0.617
5,GCCACAA,-0.643
6,CAGGAAU,1.22
7,UGCGGUC,-0.00512
8,GCGCAGA,0.385
9,AGAGGGA,2.16
10,GAAUGGU,2.65
11,CACUAUC,-0.704
12,CGAAUAG,0.192
13,UCUCCGU,-0.806
14,CUUACCC,-0.81
15,GAAAUAU,-0.00877
16,AUGAAGC,0.119
17,AUCCGGC,-0.606
18,CAGCGAA,0.119
19,UAGAAUU,-0.333
20,GUCCUCC,-0.643
21,UCAGUCG,-0.195
22,GUGGAGC,2.47
23,GUCAGUA,0.294

row,Sequence,RNAcompete 7-mer binding Z-score
1,UACUAUC,-0.723
2,GUUGAUG,0.88
3,ACAUAGG,1.48
4,GCCAAAC,-0.573
5,CUGUUAC,-0.81
6,CCAUGAC,-0.836
7,AGAUGUU,-0.267
8,AGGCAUC,-0.311
9,UGGAUCG,0.567
10,CGGACGG,1.23
11,CUCCCUG,-0.664
12,GACACCC,-0.686
13,CAAUAGA,0.476
14,GGACAAA,1.48
15,CGCCACC,-0.595
16,GAAGGCA,2.46
17,UUGUUGG,0.468
18,GCGCGAG,0.421
19,CGAUACU,-0.803
20,CGUCCGC,-0.748
21,UGGUCCA,-0.162
22,GGCUGGC,0.417
23,GCGGUUC,-0.267

row,Sequence,RNAcompete 7-mer binding Z-score
1,UUUAUUC,-0.781
2,CUCUGGA,-0.504
3,UCAACGC,-0.584
4,GGUCCGG,0.672
5,GACCAGG,0.931
6,GUACAGU,0.385
7,UGCGUCU,-0.617
8,UUUUCUC,-0.759
9,AAUGUGU,0.439
10,ACAAAGU,-0.067
11,GGAGGCG,3.13
12,AAUAGUC,-0.191
13,GAAGCUG,0.137
14,AAAAUAC,-0.486
15,CCGGUGA,0.235
16,AUAGCUG,-0.158
17,AUGGCUU,-0.027
18,ACGCAAG,0.0568
19,ACCAUGC,-0.712
20,ACCACCG,-0.377
21,CCUUUUU,-0.999
22,CGACCAU,-0.879
23,UACGAGU,-0.0998

row,Sequence,RNAcompete 7-mer binding Z-score
1,UGCUUGA,-0.686
2,ACUGAAC,-0.624
3,ACAUAGU,-0.26
4,AGUGCAC,-0.0124
5,UAGGCCG,0.224
6,ACUGACG,-0.165
7,GGUGAAA,1.83
8,ACACGGA,0.618
9,GAGUCCC,-0.439
10,GUAGGGG,4.66
11,AGGCGAU,1.12
12,CUAAACC,-0.694
13,CCCUCGA,-0.825
14,AAACAAC,-0.198
15,UACUCUA,-0.617
16,UGAACUG,-0.249
17,UGUAUCU,-0.613
18,UGAAAAG,0.439
19,AGGCUGG,0.756
20,CACCCUG,-0.89
21,CAUACAC,-0.646
22,UGUAUGG,1.1
23,AGCCUAU,-0.817

row,Sequence,RNAcompete 7-mer binding Z-score
1,ACCAUUC,-0.763
2,UAGCAUC,-0.544
3,UCUUUGC,-1
4,GUCUAGA,-0.497
5,AGCGGAU,2.6
6,CGUCACC,-0.533
7,GUUGCAG,0.439
8,UAAGUGA,0.206
9,GAAUUAA,-0.00877
10,UCAUAUU,-0.621
11,CAUGGCU,-0.304
12,CCAAGAG,-0.242
13,GGGUAAC,2.47
14,GGGCACC,1.05
15,ACUCGUG,-0.602
16,UUGCGAC,-0.584
17,AGCUUAA,-0.508
18,UGGUUAC,0.585
19,GCAUGCC,-0.559
20,CCCUAUA,-0.759
21,CUACCAC,-0.712
22,UUGAGUA,-0.0197
23,CCAGCUC,-0.821

row,Sequence,RNAcompete 7-mer binding Z-score
1,CGGAGAU,1.44
2,CACGUAC,-0.482
3,UGCAGAA,0.0859
4,GCUGUGG,1.01
5,AGUGUAC,0.228
6,GUCUACA,-0.493
7,GGGAAAG,4.49
8,GCACAAA,-0.395
9,AGACCUG,-1.05
10,UCCAGGU,0.213
11,ACUAUUA,-0.668
12,ACAUACC,-0.65
13,CGACCCA,-0.763
14,ACUCGGU,-0.544
15,UUUUCUA,-0.617
16,CUGAACC,-0.777
17,AUAGGGG,4.15
18,AGGAGCG,2.62
19,CAUAUAA,-0.468
20,GCGUUCA,-0.216
21,CCUUUCA,-0.876
22,UCCAAGC,-0.573
